Data reported in PMC13083723 (Patterns, 2026).
In all, about 5,400 compounds went through this assay and about 190 (3.5%) showed an effect of 50% or more. The list shows a part of the results.

tested on: Vero-E6; assay: primary screen, phospholipidosis by LipidTOX staining; higher = more effect of the substance; settings: 10 µM
In short: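 Single-concentration screen at 10 μM, with DMSO 0.1 v/v % and amiodarone 10 μM as controls. Read-out is LipidTOX Red phospholipid staining, which tolerates aldehyde fixation, in Vero-E6 cells.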

| SMILES | result_ITMP |
| --- | --- |
| CC(=O)O[C@]1(C(C)=O)CC[C@H]2[C@@H]3C=C(C)C4=CC(=O)CC[C@@H]4[C@H]3CC[C@@]21C | -8.69% |
| COc1ccc(CCN(C)CCc2ccc(OC)c(OC)c2)cc1OC | -1.15% |
| NC(=O)c1noc([C@H](CCCC2CCCCC2)CC(=O)NO)n1 | -5.23% |
| CC1(CN2CCC(n3c(=O)[nH]c4ccccc43)CC2)OCc2ccccc2-n2cccc21 (centres unmarked) | -1.56% |
| CC(C)[C@@H]1CC[C@@H](C)C[C@H]1O | -7.25% |
| CC[C@H](C)n1cc(C)c2c(C(=O)NCc3c(C)cc(C)[nH]c3=O)cc(-c3ccc(N4CCNCC4)nc3)cc21 | -1.29% |
| NC(N)=NCCC[C@@H](N)C(=O)N[C@@H](CCCN=C(N)N)C(=O)N1CCC[C@H]1C(=O)N1C[C@H](O)C[C@H]1C(=O)NCC(=O)N[C@@H](Cc1cccs1)C(=O)N[C@@H](CO)C(=O)N1Cc2ccccc2C[C@@H]1C(=O)N1[C@H](C(=O)N[C@@H](CCCN=C(N)N)C(=O)O)C[C@@H]2CCCC[C@@H]21 | -1.28% |
| CC(C)Oc1cccc(-n2c(CCc3c[nH]c4ccc(Br)cc34)nc3ccccc3c2=O)c1 | -2.01% |
| CC(C)(C)NCC(O)c1ccc(O)cc1Cl (centres unmarked) | -2.23% |
| CC[C@@]1(O)C(=O)OCc2c1cc1n(c2=O)Cc2cc3cc(O)ccc3nc2-1 | 2.87% |
| C=CCc1cc(OC)c(O)c(C(=O)NCCO)c1 | -1.23% |
| COc1ccc(C(=O)N2CCN(c3ccc4c(c3)CCC(=O)N4)CC2)cc1OC | 1.75% |
| CN(C)CCNc1nc2cc(O)ccc2c2c1C(=O)c1ccccc1-2 | 76.7% |
| C#C[C@]1(O)CC[C@H]2[C@@H]3CCC4=CC(=O)CC[C@@H]4[C@H]3CC[C@@]21C | -5.93% |
| C=C[C@H]1C[N@]2CC[C@H]1C[C@H]2[C@H](O)c1ccnc2ccccc12 | 2.46% |
| O=C(O)CNC(=O)c1ccccc1 | -2.08% |
| COc1ccc2c(c1)/C(=C/c1cnc[nH]1)C(=O)N2 | -0.89% |
| CC(=O)N1CCN(c2ccc(OCC3CO[C@](Cn4ccnc4)(c4ccc(Cl)cc4Cl)O3)cc2)CC1 (some centres unmarked) | -2.23% |
| Cc1ccc([N+](=O)[O-])cc1O | -3.44% |
| C#C[C@]1(OC(C)=O)CC[C@H]2[C@@H]3CCC4=C[C@@H](OC(C)=O)CC[C@@H]4[C@H]3CC[C@@]21C | 8.26% |
| CC(C)[C@H](C(=O)Nc1ccc(C(=O)NO)cc1)c1ccccc1 | -6.12% |
| N[C@H]1CCN(O)C1=O | -8.51% |
| Cc1cc(C)cc(C(=O)OC2CC3CCC(C2)N3C)c1 (centres unmarked) | 32.8% |
